Test results reported in PubChem BioAssay AID894 (National Center for Advancing Translational Sciences (NCATS), 2007).
Values joined by “and” are separate entries in the source; they are usually repeats but may differ in a detail not shown here. Equal entries are not always repeated. In all, about 150,000 compounds went through this assay and about 6,500 (4.3%) were called active. Inconclusive results, whose numbers are uncertain, are shown with a selection of clear calls. The call rests on the fitted dose curve; in most records, active means well fitted inhibition curve with a large enough effect (not every such curve was filed as active); inconclusive means small, poorly fitted or top-dose-only effect, or another doubt; inactive means no such curve, though single readings can be large or run the other way. Potencies of inconclusive entries are left out as doubtful fits.

Molecular target: 15-hydroxyprostaglandin dehydrogenase [NAD(+)] (Homo sapiens) (UniProt P15428)
UniProt P15428, sequence (P15428 whole entry, looked up): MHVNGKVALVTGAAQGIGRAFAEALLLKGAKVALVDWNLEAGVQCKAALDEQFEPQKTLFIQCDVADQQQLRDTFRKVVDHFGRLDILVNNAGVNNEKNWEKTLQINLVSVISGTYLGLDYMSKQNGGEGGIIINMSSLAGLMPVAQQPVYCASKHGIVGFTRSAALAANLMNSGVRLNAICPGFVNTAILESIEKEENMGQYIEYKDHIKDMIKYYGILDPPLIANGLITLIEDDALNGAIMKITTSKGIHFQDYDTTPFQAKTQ
Experiment: qHTS Assay for Inhibitors of HPGD (15-Hydroxyprostaglandin Dehydrogenase)
Settings: purified HPGD, NADH fluorescence kinetic, PGE2 substrate; activity change, negative = inhibition: hits give low values
In short: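 20 nM HPGD preincubated 15 min at room temperature with compound in 50 mM Tris-HCl pH 8, 0.01% Tween 20. Started with 1 mM NAD+ and 30 uM prostaglandin E2; NADH fluorescence (360/450 nm) read 5 times over 30-s intervals, last minus first.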
On the % scale 0 is the no-effect control and ±100 the full control effect; potency means the concentration at half of the fitted maximal effect; tags describe the fitted curve by direction and shape.

| Compound | Potency | activity change, negative = inhibition |
| --- | --- | --- |
| COC(=O)c1cccc(N2C(=O)c3cccnc3C2=O)c1 | inconclusive [inhibitor, partial curve] |  |
| CCOC(=O)N1CCC(NC(=O)c2cc(C)c3c(C)nn(-c4ccccc4)c3n2)CC1 | inconclusive [inhibitor, single point] |  |
| COCCn1c(=NC(=O)/C=C/c2ccccc2)sc2cc(NC(C)=O)ccc21 | inconclusive [inhibitor, single point] |  |
| CC(SCc1ccccc1)C(=O)N/N=C/c1ccc2c(c1)OCO2 (stereo not drawn) | inconclusive [inhibitor, partial curve, poor fit] |  |
| Cn1c(C(=O)O)c(CC(=O)N2CCC(Cc3ccccc3)CC2)c2ccccc21 |  | inactive: -21.1% |
| COc1ccc(-c2cc(C(F)(F)F)nc(SCC(=O)N3CC(C)OC(C)C3)n2)cc1OC (stereo not drawn) | inconclusive [inhibitor, partial curve] |  |
| COc1ccc(C2CC2/C(C)=N/OC(=O)c2cccs2)cc1 (stereo not drawn) | active: 22.4 µM |  |
| Cc1ccc(OCCOc2cccc(Br)c2)c([N+](=O)[O-])n1 | inconclusive [inhibitor, partial curve, poor fit] |  |
| CCN(CC)S(=O)(=O)c1ccc(-c2nnc(SCC(=O)c3ccc(OC)cc3)o2)cc1 |  | inactive: -6.91% |
| O=C(Cn1nnc(-c2ccc(Cl)cc2)n1)NC1CC2CCC1C2 (stereo not drawn) |  | inactive: -4.57% |
| Cc1nn(-c2ccccn2)c2c1C(c1ccsc1)C1=C(CCCC1=O)N2 (stereo not drawn) | inconclusive [inhibitor, partial curve] |  |
| CN(C)CCNc1nc(-c2ccco2)c2c(c1C#N)CC(C)(C)OC2 | inconclusive [inhibitor, single point] |  |
| COc1ccc(OC)c(/C=N/NC(=O)c2ccc(Cn3cc([N+](=O)[O-])cn3)o2)c1 | inconclusive [inhibitor, partial curve] |  |
| O=C(NCc1cn2ccccc2n1)c1ccco1 | inconclusive [inhibitor, partial curve] |  |
| Cc1ccc(S(=O)(=O)/N=C(/NC(=S)Nc2cccc(C)c2)c2ccccc2)cc1 | active: 20 µM |  |
| CCc1ccc2[nH]c(=O)c(CN(CCCO)C(=O)NCc3ccccc3)cc2c1 | inconclusive [inhibitor, single point] |  |
| CCOCC(=O)Nc1ccc(F)c(F)c1 | active: 28.2 µM |  |
| Cc1cccc(-c2nc(C#N)c(NC3CCCCC3)o2)c1 | inconclusive [inhibitor, partial curve] |  |
| COc1ccc(O)c(/C=N/c2sc(C)c(C)c2C#N)c1 | active: 25.1 µM |  |
| CCCn1nc(C(=O)Oc2ccc3c(C)cc(=O)oc3c2)c2ccccc2c1=O | inconclusive [inhibitor, partial curve] |  |
| OCc1cn(-c2ccccc2)nc1-c1ccc2c(c1)OCCO2 | inconclusive [inhibitor, partial curve] |  |
| CCCCN(CC)C(=O)CSc1cc(=O)n(C)c2ccccc12 | active: 7.08 µM |  |

| Compound | Potency | activity change, negative = inhibition |
| --- | --- | --- |
| Cn1ncc([N+](=O)[O-])c1C(=O)Nc1nccs1 | inconclusive [inhibitor, single point] |  |
| COC(=O)c1cc(-c2ccccc2)sc1NC(=O)CN1C(=O)c2ccccc2C1=O | inconclusive [inhibitor, single point] |  |
| Cc1cccnc1Nc1nc(-c2ccccn2)cs1 |  | inactive: -5.54% |
| CS(=O)(=O)Nc1ccc(Cc2ccc(NS(C)(=O)=O)cc2)cc1 | inconclusive [inhibitor, partial curve] |  |
| COc1cc(COc2ccc3c(C)c(Cc4ccccc4)c(=O)oc3c2)cc(OC)c1OC | inconclusive [inhibitor, partial curve] |  |
| Cc1cc(/C=C2\SC(=S)N(Cc3ccco3)C2=O)c(C)n1-c1ccccc1 | inconclusive [inhibitor, partial curve] |  |
| CS(=O)(=O)N(Cc1ccc(C(=O)NCCSCc2ccco2)cc1)c1ccccc1 | inconclusive [inhibitor, partial curve] |  |
| COc1ccc(OC)c(C2C(C(C)=O)=C(O)C(=O)N2Cc2cccnc2)c1 (stereo not drawn) |  | inactive: -11.5% |
| CC1(C)CC(=O)c2cc(OCC(=O)NCCN3CCOCC3)ccc2O1 | inconclusive [inhibitor, partial curve] |  |
| CCOC(=O)N1CCC(NC(=O)c2ccc(CS(=O)(=O)c3c(Cl)cccc3Cl)o2)CC1 |  | inactive: -6.68% |
| COc1ccccc1NS(=O)(=O)c1cc(NC(=O)c2cccs2)ccc1N1CCCC1 | active: 8.91 µM |  |
| CCOC(=O)c1c(C)c(C(=O)NCCOC)c(C)n1CC | active: 8.91 µM |  |
| O=C1OCCN1C(=O)[C@H]1[C@H](c2ccccc2)C(c2ccc(F)cc2)=NN1c1ccccc1 | inconclusive [inhibitor, partial curve] |  |
| Cc1c(C(=O)N2CCCC2)sc(NC(=O)c2ccccc2)c1C#N | inconclusive [inhibitor, partial curve] |  |
| C=C/C1=C/Cc2ccccc2[C@H](C[N+](=O)[O-])C(C(C)=O)(C(=O)OC)C1 (stereo partly drawn) |  | inactive: 0.427% and inactive: -17.1% |
| CCOc1ccc2[nH]c(=O)c(CN(CCO)C(=O)c3ccc(Br)cc3)cc2c1 | inconclusive [inhibitor, partial curve] |  |
| Cc1nc(N2CCOCC2)c2nc(-c3ccccc3)n(CC3CCN(C)CC3)c2n1 | inconclusive [inhibitor, partial curve] |  |
| COc1ccc(C(=O)N2CCC3(CCCN(Cc4ccccc4OC)C3)CC2)cc1 |  | inactive: -2.8% |
| COc1cc(NC(=O)c2ccco2)c(OC)cc1NC(=O)Nc1ccccc1Cl | inconclusive [inhibitor, partial curve] |  |
| O=C(NCC1CCCO1)c1cc2c(s1)CS(=O)(=O)C2 (stereo not drawn) | inconclusive [inhibitor, partial curve] |  |
| CCCCCCS(=O)[C@H]1CS(=O)(=O)C[C@@H]1S(=O)CCCCCC (stereo partly drawn) | active: 12.6 µM |  |
